The list shows a part of the results.
Key:
HSkMC = human skeletal muscle cells; assay: cytotoxicity call (relative viability < 0.9); conditions: 10 µM
HepG2 = assay: cytotoxicity call (relative viability < 0.9); conditions: 10 µM
S. aureus RN4220 = assay: growth inhibition call (relative growth <= 0.2); conditions: 50 µM

Compound | cytotoxicity call (HSkMC) | cytotoxicity call (HepG2) | growth inhibition call (S. aureus RN4220)
CCC[C@@H](O)C#Cc1cnc2c(c1)C(=O)N([C@H](C)CO)C[C@H](C)[C@H](CN(C)C(=O)Nc1ccc3c(c1)OCO3)O2 | inactive | inactive | inactive
CN1C(=O)c2cc(NC(=O)C3CCCC3)ccc2OC[C@@H]2O[C@@H](CC(=O)NCCc3ccncc3)CC[C@@H]21 | inactive | inactive | inactive
O=S(=O)(NCC[C@H]1CC[C@@H](NS(=O)(=O)c2ccccc2Cl)[C@@H](CO)O1)c1ccc(F)cc1 | inactive | inactive | inactive
C[C@@H]1CN([C@H](C)CO)C(=O)Cc2cc(NC(=O)Nc3cccc4ccccc34)ccc2O[C@H]1CN(C)Cc1ccccc1 | inactive | inactive | inactive
Cc1ccc(S(=O)(=O)N[C@H]2CC[C@@H](CC(=O)NCc3ccc(Cl)c(Cl)c3)O[C@H]2CO)cc1 | inactive | inactive | inactive
C[C@H](CO)N1C[C@H](C)[C@@H](CN(C)C(=O)Nc2cccc(Oc3ccccn3)c2)OCc2cnnn2CCCC1=O | inactive | inactive | inactive
COc1ccc(NC(=O)Nc2ccc3c(c2)C(=O)N([C@@H](C)CO)C[C@@H](C)[C@@H](CN(C)C(=O)NC(C)C)OCCCC[C@@H](C)O3)cc1 | inactive | inactive | inactive
CN(CC(=O)NC1CCCC1)S(C)(=O)=O | inactive | inactive | inactive
CO[C@@H]1CN(C)C(=O)c2cc(NC(=O)c3ccccc3)ccc2OC[C@H](C)N(C(=O)CN(C)C)C[C@@H]1C | inactive | inactive | inactive
NC(=O)Nc1nc2ccccc2[nH]c1=O | inactive | inactive | inactive
CO[C@@H]1CN(C)C(=O)c2ccc(NS(=O)(=O)c3ccccc3C)cc2OC[C@@H](C)N(S(C)(=O)=O)C[C@H]1C | inactive | inactive | inactive
CC(C)c1cccc(NC(=O)C[C@H]2CC[C@H]3[C@@H](COc4ccc(NC(=O)c5ccc(C#N)cc5)cc4C(=O)N3C)O2)c1 | inactive | inactive | inactive
C[C@@H]1CN([C@@H](C)CO)C(=O)Cc2cc(NC(=O)Cc3cn(C)c4ccccc34)ccc2O[C@@H]1CN(C)CC1CCCCC1 | inactive | active | inactive
C[C@@H]1CN([C@@H](C)CO)C(=O)c2cc(NC(=O)Nc3ccc(F)cc3)ccc2O[C@@H](C)CCCCO[C@H]1CN(C)S(=O)(=O)c1cccs1 | inactive | active | inactive
C[C@@H]1CN([C@@H](C)CO)C(=O)Cc2cc(NC(=O)Cc3cn(C)c4ccccc34)ccc2O[C@@H]1CN(C)S(C)(=O)=O | inactive | inactive | inactive
Cc1cccc(S(=O)(=O)N2C[C@H](O)COC[C@@H]3O[C@H](CC(=O)NCc4ccncn4)CC[C@H]32)c1 | inactive | inactive | inactive
C[C@@H]1CN([C@@H](C)CO)C(=O)c2cc(C#Cc3cccc(F)c3)cnc2O[C@H]1CN(C)C(=O)C1CCOCC1 | inactive | inactive | inactive
O=C(C[C@H]1C[C@@H]2c3cc(NC(=O)Nc4ccc(C(F)(F)F)cc4)ccc3O[C@@H]2[C@H](CO)O1)NCCc1ccccc1 | inactive | inactive | inactive
CCCNC(=O)Nc1ccc2c(c1)C(=O)N(C)C[C@@H](OC)[C@H](C)CN(C(=O)C1CCOCC1)[C@@H](C)CO2 | inactive | inactive | inactive
OCc1ccccc1OC1OC(CO)C(O)C(O)C1O (configuration not stated) | inactive | inactive | inactive
C[C@@H]1CN([C@H](C)CO)S(=O)(=O)c2ccc(C#Cc3ccccc3)cc2O[C@@H]1CN(C)S(C)(=O)=O | inactive | inactive | inactive
CCCCCCCCCCCC(=O)OCN1C(=O)CCc2ccc(OCCCCN3CCN(c4cccc(Cl)c4Cl)CC3)cc21 | inactive | inactive | inactive
C[C@@H]1CCCCO[C@H](CN(C)C(=O)Cc2ccccc2)[C@@H](C)CN([C@H](C)CO)C(=O)c2cc(NC(=O)CCC(F)(F)F)ccc2O1 | inactive | inactive | inactive
C[C@H]1CCCCO[C@H](CN(C)Cc2ccccc2)[C@@H](C)CN([C@@H](C)CO)C(=O)c2cc(NC(=O)CCC(F)(F)F)ccc2O1 | inactive | inactive | inactive
CO[C@H]1CN(C)C(=O)c2cc(NC(=O)NC(C)C)ccc2OC[C@@H](C)N(Cc2ccc(-c3ccccn3)cc2)C[C@@H]1C | inactive | inactive | inactive
CCCN(C)C[C@@H]1OCCCC[C@@H](C)Oc2ccc(NC(=O)Nc3cccc4ccccc34)cc2C(=O)N([C@H](C)CO)C[C@@H]1C | inactive | inactive | inactive
C[C@@H]1CN([C@@H](C)CO)C(=O)Cc2cc(NC(=O)Cc3cn(C)c4ccccc34)ccc2O[C@@H]1CN(C)Cc1ccc(Cl)c(Cl)c1 | inactive | inactive | inactive

Compound | cytotoxicity call (HSkMC) | cytotoxicity call (HepG2) | growth inhibition call (S. aureus RN4220)
Cc1cc(C)n(N)c(=O)c1C(=O)O | inactive | inactive | inactive
C[C@H]1CN([C@@H](C)CO)C(=O)c2cccc(NS(=O)(=O)c3ccc(F)cc3)c2O[C@@H]1CN(C)S(=O)(=O)c1ccc(F)cc1 | inactive | inactive | inactive
COc1cc(CO)cc(I)c1O[C@H]1C=C(C(=O)NCCO)C[C@@H](N(Cc2ccc(F)cc2)C(=O)[C@H]2CCCO2)[C@@H]1O | inactive | inactive | inactive
C[C@@H]1CCCCO[C@H](CN(C)Cc2ccccc2)[C@@H](C)CN([C@@H](C)CO)C(=O)c2cc(NS(=O)(=O)c3ccc(Cl)cc3)ccc2O1 | inactive | inactive | inactive
Cc1ccc(S(=O)(=O)N(C)C[C@@H]2OCCCC[C@H](C)Oc3ccc(NC(=O)CCC(F)(F)F)cc3C(=O)N([C@H](C)CO)C[C@H]2C)cc1 | inactive | inactive | inactive
COc1ccc(NC(=O)N(C)C[C@@H]2Oc3ncc(C#CC(C)C)cc3C(=O)N([C@@H](C)CO)C[C@H]2C)cc1 | inactive | inactive | inactive
COc1ccc(NC(=O)Nc2ccc3c(c2)CC(=O)N([C@@H](C)CO)C[C@H](C)[C@H](CN(C)S(=O)(=O)c2cn(C)cn2)O3)cc1 | inactive | inactive | inactive
C[C@@H]1CCCCO[C@H](CN(C)Cc2ccc(Cl)c(Cl)c2)[C@H](C)CN([C@@H](C)CO)C(=O)c2cc(NS(=O)(=O)c3ccc(F)cc3)ccc2O1 | active | active | inactive
CC(C)NC(=O)N(C)C[C@@H]1Oc2cc(-c3ccccc3F)ccc2S(=O)(=O)N([C@H](C)CO)C[C@@H]1C | inactive | inactive | inactive
Cc1noc(C)c1S(=O)(=O)Nc1ccc2c(c1)C(=O)N([C@H](C)CO)C[C@H](C)[C@@H](CN(C)CC1CCCCC1)OCCCC[C@H](C)O2 | inactive | inactive | inactive
Nc1nc(N)nc(-c2cc(Cl)ccc2Cl)n1.O=C(O)C=CC(=O)O | inactive | inactive | inactive
C[C@H]1CN([C@@H](C)CO)C(=O)c2cccc(NC(=O)CCCCCC(=O)Nc3ccccc3N)c2O[C@H]1CN(C)S(C)(=O)=O | inactive | inactive | inactive
C=C(NC(=O)C(=C)NC(=O)c1csc(C2=N[C@H]3c4csc(n4)[C@H]4NC(=O)c5csc(n5)[C@H](C(C)(O)[C@@H](C)O)NC(=O)[C@H]5CSC(=N5)C(=CC)NC(=O)[C@H]([C@@H](C)O)NC(=O)c5csc(n5)[C@]3(CC2)NC(=O)[C@H](C)NC(=O)C(=C)NC(=O)[C@H](C)NC(=O)[C@H]([C@H](C)CC)N[C@@H]2C=Cc3c([C@H](C)O)cc(nc3[C@H]2O)C(=O)O[C@@H]4C)n1)C(N)=O (some centres not stated) | active | active | inactive
COc1ccc(NC(=O)N(C)C[C@@H]2Oc3ncc(C#CC(C)C)cc3C(=O)N([C@H](C)CO)C[C@@H]2C)cc1 | inactive | inactive | inactive
O=C(O)CCN1C(=O)[C@@H]2[C@@H](C1=O)[C@@H]1C=C[C@@H]2C1 | inactive | inactive | inactive
C[C@@H]1CN([C@H](C)CO)C(=O)c2cc(NS(=O)(=O)c3cccs3)ccc2O[C@@H](C)CCCCO[C@H]1CN(C)C(=O)Nc1ccc(F)cc1 | inactive | inactive | inactive
C[C@@H]1CN([C@@H](C)CO)C(=O)c2cc(NC(=O)Nc3ccc4c(c3)OCO4)ccc2O[C@H]1CN(C)Cc1ccc(C(F)(F)F)cc1 | active | inactive | inactive
FC(F)(F)c1nnc2n1CCNC2 | inactive | inactive | inactive
Nc1nc(N)c2nc(-c3ccccc3)c(N)nc2n1 | inactive | inactive | inactive
C[C@H]1CCCCO[C@@H](CN(C)S(=O)(=O)c2cccs2)[C@@H](C)CN([C@@H](C)CO)C(=O)c2cc(NC(=O)NC3CCCCC3)ccc2O1 | inactive | inactive | inactive
CC1OC(OC2C(O)CC(OC3C(O)CC(OC4CCC5(C)C(CCC6C5CCC5(C)C(C7=CC(=O)OC7)CCC65O)C4)OC3C)OC2C)CC(O)C1O (configuration not stated) | active | active | inactive
CN(C)CCCNC(=O)C[C@H]1CC[C@@H]2[C@H](COc3ccc(NC(=O)NC4CCCC4)cc3C(=O)N2C)O1 | inactive | inactive | inactive
COc1cccc(NC(=S)NN)c1 | inactive | inactive | inactive
C[C@@H]1CN([C@H](C)CO)C(=O)c2cc(NC(=O)C3CC3)ccc2O[C@H]1CN(C)S(=O)(=O)c1ccc(F)cc1 | inactive | inactive | inactive
C[C@@H]1CN([C@@H](C)CO)S(=O)(=O)c2ccc(C#Cc3cccnc3)cc2O[C@H]1CN(C)CC1CCCC1 | inactive | inactive | inactive
COc1ccc(NC(=O)Nc2ccc3c(c2)C(=O)N([C@H](C)CO)C[C@@H](C)[C@@H](CN(C)C(=O)Cc2ccccc2)OCCCC[C@H](C)O3)cc1 | inactive | inactive | inactive
COc1ccccc1NC(=O)N(C)C[C@@H]1Oc2ncc(Br)cc2C(=O)N([C@@H](C)CO)C[C@H]1C | inactive | inactive | inactive

Reference: the antibiotic and cytotoxicity screens of Wong et al. (2023)
